In the supplement of paper PMC12217912:
The list shows a part of the results. Sequences were assembled here from the parent chain. Values near 0.05 are background.

B1: TEV protease; numbered along this chain (parent)
chain: MGESLFKGPRDYNPISSSICHLTNESDGHTTSLYGIGFGPFIITNKHLFRRNNGTLVVQSLHGVFKVKDTTTLQQHLVDGRDMIIIRMPKDFPPFPQKLKFREPQREERICLVTTNFQTKSMSSMVSDTSCTFPSGDGIFWKHWIQTKDGQCGSPLVSTRDGFIVGIHSASNFTNTNNYFTSVPKNFMELLTNQEAQQWVSGWRLNADSVLWGGHKVFMVKPEEPFQPVKEATQL

Variants of: B1
Experiment: raw area under fraction-flipped curve 0-4 h after induction (AUC4h, not background-subtracted), DNA-recorder readout of cleavage of the substrate (dimensionless); higher = more cleavage of the substrate by the protease variant
Settings: temperature: 34 °C; time window: 0-4 h after rhamnose induction
Description: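 In vivo DNA recorder in E. coli TOP10(DE3) ΔrhaA at 34 °C. Each TEVp single-site mutant (parent TEVp 0) is paired with a single-site variant of the 7-mer TEVs (canonical ENLYFQ|S). The substrate sits between flexible linkers in a Bxb1-sfGFP-TEVs-SsrA fusion, so cleavage stabilises Bxb1 and speeds flipping of a recombination array, read by NGS. The value is the raw area under the fraction-flipped curve over 0-4 h after rhamnose induction (AUC4h), with ≥20 reads per time point. It is not background-subtracted; inactive controls average about 0.047.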
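Note: Bxb1 expression induced with 0.2% (w/v) L-rhamnose at OD600 near 0.5, cultures sampled hourly, flipped fraction per protease–substrate barcode pair counted by paired-end Illumina sequencing.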

| Variant | area with substrate ENAYFQS | area with substrate ENCYFQS | area with substrate ENDYFQS | area with substrate ENFYFQS | area with substrate ENGYFQS | area with substrate ENIYFQS | area with substrate ENKYFQS | area with substrate ENSYFQS | area with substrate ENTYFQS | area with substrate ENYYFQS |
| --- | --- | --- | --- | --- | --- | --- | --- | --- | --- | --- |
| G138W | 0.0618 | 0.0848 | 0.0667 | 0.0537 | 0.0589 | 0.077 | 0.0578 | 0.0554 | 0.0641 | 0.0606 |
| D91M | 0.0232 |  |  |  |  |  |  | 0.0641 |  |  |
| S124G | 0.0642 |  | 0.0691 |  | 0.0594 |  |  | 0.0521 |  |  |
| N172V | 0.0589 | 0.0744 | 0.0651 | 0.0515 |  |  |  |  |  |  |
| G35D | 0.0608 |  |  |  | 0.0292 |  | 0.0459 | 0.0402 |  | 0.0402 |
| D137S | 0.0574 |  |  |  |  |  |  |  |  |  |
| D149I | 0.058 |  | 0.0617 |  |  | 0.072 | 0.0656 | 0.0737 |  |  |
| R204P | 0.0707 | 0.06 | 0.0734 |  |  |  |  | 0.0623 | 0.0681 |  |
| E3A | 0.0501 | 0.0633 | 0.085 | 0.055 | 0.0646 |  |  | 0.0573 | 0.0654 | 0.0604 |
| N53L | 0.0617 |  | 0.0614 |  |  |  |  |  | 0.0507 | 0.0555 |
| S201H | 0.0829 | 0.0596 | 0.031 | 0.0759 |  |  | 0.0614 | 0.0604 |  |  |
| T30D | 0.059 | 0.0627 | 0.0627 | 0.0473 |  |  |  | 0.0531 |  |  |
| Q197R | 0.0704 |  | 0.0502 | 0.049 |  |  | 0.0545 | 0.0826 |  |  |
| M83E | 0.0546 | 0.0478 | 0.0637 |  |  |  |  | 0.0527 |  |  |
| N177M | 0.0642 | 0.0598 |  |  |  |  | 0.0646 | 0.0543 | 0.0806 |  |
| L235T | 0.0594 | 0.0644 | 0.0535 |  |  | 0.103 | 0.0659 | 0.0579 | 0.0383 |  |
| K100Q | 0.0666 |  | 0.081 |  |  | 0.142 |  |  | 0.0535 |  |
| L190T | 0.0735 | 0.0764 | 0.0678 | 0.0696 |  |  | 0.0613 | 0.0661 | 0.0784 | 0.0086 |
| K185V | 0.0542 | 0.08 |  |  | 0.0696 | 0.0985 |  | 0.0668 | 0.0491 | 0.0614 |

| Variant | area with substrate ENAYFQS | area with substrate ENCYFQS | area with substrate ENDYFQS | area with substrate ENFYFQS | area with substrate ENGYFQS | area with substrate ENIYFQS | area with substrate ENKYFQS | area with substrate ENSYFQS | area with substrate ENTYFQS | area with substrate ENYYFQS |
| --- | --- | --- | --- | --- | --- | --- | --- | --- | --- | --- |
| G2F | 0.0659 | 0.0832 | 0.0562 |  | 0.0404 | 0.11 | 0.0568 |  | 0.0582 |  |
| G2H | 0.0642 | 0.0656 | 0.0744 | 0.063 | 0.067 |  |  |  | 0.0776 | 0.04 |
| G2A | 0.0615 |  | 0.0472 | 0.0659 | 0.0636 |  |  | 0.0725 | 0.0717 |  |
| T181K | 0.0461 |  | 0.0554 |  |  |  |  |  |  |  |
| E195P | 0.0673 |  | 0.0636 | 0.0657 |  |  |  |  |  |  |
| E195T | 0.0504 | 0.0626 |  |  |  |  |  | 0.0567 |  |  |
| V210P | 0.0578 | 0.05 | 0.0507 | 0.0615 | 0.0528 |  |  | 0.0667 | 0.0803 |  |
| T119Q | 0.0493 |  | 0.0701 |  | 0.0495 |  | 0.0646 |  |  |  |
| S209G | 0.0521 | 0.054 |  | 0.0797 |  |  | 0.0549 | 0.0761 |  | 0.0585 |
| S209R | 0.0659 | 0.0658 | 0.0619 | 0.0581 |  |  | 0.0651 |  |  |  |
| F140S | 0.0457 |  | 0.0699 |  | 0.0388 |  |  | 0.0832 |  |  |
| P228R | 0.0531 |  | 0.0731 | 0.0578 | 0.041 |  | 0.0299 |  | 0.0763 | 0.0622 |
| T132N | 0.0675 |  |  | 0.0758 | 0.0716 | 0.0648 |  | 0.0682 | 0.0786 | 0.0561 |
| Q59R | 0.0419 |  |  | 0.0953 |  | 0.116 | 0.0548 | 0.0595 |  |  |
| S182E | 0.069 | 0.056 | 0.0611 | 0.0409 | 0.0711 |  |  | 0.0483 |  |  |
| V78N | 0.0596 | 0.0503 |  |  | 0.0445 | 0.0784 | 0.059 | 0.0571 |  |  |
| T44M | 0.0491 | 0.0604 | 0.0541 | 0.0432 | 0.0554 | 0.0735 | 0.0497 | 0.0543 |  | 0.0492 |
| I85A | 0.0557 |  |  | 0.112 |  |  |  | 0.0168 |  |  |
| F163D | 0.0723 |  |  |  |  |  |  |  |  |  |

Same assay, conditions: temperature: 34 °C; time window: 0-4 h after rhamnose induction

| Variant | area with substrate ENNYFQS | area with substrate ENRYFQS | area with substrate ENHYFQS | area with substrate ENPYFQS | area with substrate ENQYFQS | area with substrate ENVYFQS | area with substrate ENWYFQS | area with substrate ENEYFQS | area with substrate ENMYFQS |
| --- | --- | --- | --- | --- | --- | --- | --- | --- | --- |
| D91M | 0.0628 | 0.0593 |  |  |  |  |  |  |  |
| S124G | 0.0591 |  | 0.0992 | 0.0518 | 0.0653 | 0.0605 | 0.0393 |  |  |
| N172V |  |  | 0.0793 |  | 0.0675 | 0.0477 | 0.0479 | 0.0587 |  |
| G35D |  |  |  |  | 0.0441 |  |  | 0.0495 |  |
| D137S |  |  |  |  |  |  |  | 0.07 |  |
| D149I | 0.0693 |  |  | 0.0578 | 0.0593 | 0.0584 | 0.0457 | 0.0601 |  |
| R204P |  |  | 0.0682 |  |  |  |  | 0.0552 |  |
| E3A |  | 0.0581 | 0.0608 | 0.0613 | 0.0541 | 0.0857 |  | 0.0616 | 0.101 |
| N53L |  |  | 0.0558 | 0.0437 | 0.0624 | 0.0607 | 0.0518 | 0.0666 |  |
| S201H |  | 0.058 |  |  |  |  | 0.0655 | 0.057 |  |
| T30D | 0.0452 |  | 0.056 |  |  |  |  |  | 0.067 |
| Q197R |  |  |  |  | 0.0568 |  | 0.049 | 0.0912 |  |
| M83E | 0.0596 | 0.0506 | 0.063 | 0.052 | 0.0601 | 0.0483 | 0.0317 |  |  |
| N177M | 0.0677 |  |  | 0.0482 | 0.0493 |  |  | 0.0619 |  |
| L235T |  |  |  | 0.0725 | 0.0561 | 0.0848 |  | 0.0523 |  |
| K100Q | 0.0656 | 0.0617 | 0.0626 | 0.0592 | 0.0568 | 0.0895 | 0.0539 |  | 0.0749 |
| L190T | 0.0765 | 0.0568 |  | 0.0547 | 0.0889 |  |  | 0.0462 | 0.0902 |
| K185V | 0.0515 |  |  |  |  |  |  | 0.0553 | 0.0837 |
| G2F |  | 0.0692 |  |  | 0.0659 | 0.0683 |  | 0.0564 |  |

| Variant | area with substrate ENNYFQS | area with substrate ENRYFQS | area with substrate ENHYFQS | area with substrate ENPYFQS | area with substrate ENQYFQS | area with substrate ENVYFQS | area with substrate ENWYFQS | area with substrate ENEYFQS | area with substrate ENMYFQS |
| --- | --- | --- | --- | --- | --- | --- | --- | --- | --- |
| G2H | 0.0562 |  |  | 0.0296 | 0.0592 |  |  |  |  |
| G2A |  | 0.0579 |  |  | 0.0618 |  | 0.0636 |  |  |
| T181K | 0.0201 |  | 0.0561 | 0.0426 |  |  |  | 0.0423 | 0.0876 |
| E195P |  |  |  |  | 0.0687 |  |  |  |  |
| E195T |  |  |  |  | 0.0462 |  |  |  |  |
| V210P |  |  |  |  | 0.0705 | 0.0623 |  | 0.0539 |  |
| T119Q |  | 0.054 |  |  |  | 0.0489 |  |  |  |
| S209G |  |  |  |  |  | 0.0325 |  |  |  |
| S209R |  |  | 0.0454 |  | 0.0645 | 0.053 |  |  |  |
| F140S |  |  |  |  |  |  |  |  | 0.058 |
| P228R |  |  | 0.0711 |  | 0.0613 | 0.0683 |  | 0.0492 | 0.0898 |
| T132N | 0.0587 |  |  |  | 0.0605 | 0.0405 |  | 0.0637 | 0.0515 |
| Q59R | 0.0608 | 0.047 |  |  | 0.0624 |  |  | 0.0568 |  |
| S182E | 0.0455 | 0.0607 |  | 0.0714 |  |  |  | 0.0469 |  |
| V78N | 0.0486 | 0.0089 | 0.0654 | 0.0331 | 0.0483 | 0.0597 |  |  | 0.0601 |
| T44M | 0.0586 | 0.0456 | 0.0753 | 0.0583 | 0.0461 |  | 0.0428 |  | 0.0531 |
| I85A | 0.0665 |  |  | 0.0592 |  | 0.0626 |  | 0.0621 |  |
| F163D |  |  |  |  | 0.0317 |  |  | 0.0566 |  |
